Results published in publication PMC6919601, “Identification of Plasmodium dipeptidyl aminopeptidase allosteric inhibitors by high throughput screening” (PLoS ONE, 2019).
Where “and” joins values, the source holds several entries; their conditions need not be identical. Equal entries are not always repeated. Hit rate of the full screen: of about 110,000 compounds, about 230 (0.21%) showed an effect of 50% or more. This is one part of the list.

Molecular target: DPAP1 (Plasmodium falciparum, UniProt Q8IIJ9)
Experiment: primary screen, percent inhibition; read by cleavage of a fluorogenic dipeptide substrate; higher = more effect of the substance
Set-up: species or system P. falciparum D10 trophozoite lysates; single well
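Further: 30 min substrate incubation versus DMSO and 10 µM JCP410 controls.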

Sequence of DPAP1 (Q8IIJ9 whole entry, looked up): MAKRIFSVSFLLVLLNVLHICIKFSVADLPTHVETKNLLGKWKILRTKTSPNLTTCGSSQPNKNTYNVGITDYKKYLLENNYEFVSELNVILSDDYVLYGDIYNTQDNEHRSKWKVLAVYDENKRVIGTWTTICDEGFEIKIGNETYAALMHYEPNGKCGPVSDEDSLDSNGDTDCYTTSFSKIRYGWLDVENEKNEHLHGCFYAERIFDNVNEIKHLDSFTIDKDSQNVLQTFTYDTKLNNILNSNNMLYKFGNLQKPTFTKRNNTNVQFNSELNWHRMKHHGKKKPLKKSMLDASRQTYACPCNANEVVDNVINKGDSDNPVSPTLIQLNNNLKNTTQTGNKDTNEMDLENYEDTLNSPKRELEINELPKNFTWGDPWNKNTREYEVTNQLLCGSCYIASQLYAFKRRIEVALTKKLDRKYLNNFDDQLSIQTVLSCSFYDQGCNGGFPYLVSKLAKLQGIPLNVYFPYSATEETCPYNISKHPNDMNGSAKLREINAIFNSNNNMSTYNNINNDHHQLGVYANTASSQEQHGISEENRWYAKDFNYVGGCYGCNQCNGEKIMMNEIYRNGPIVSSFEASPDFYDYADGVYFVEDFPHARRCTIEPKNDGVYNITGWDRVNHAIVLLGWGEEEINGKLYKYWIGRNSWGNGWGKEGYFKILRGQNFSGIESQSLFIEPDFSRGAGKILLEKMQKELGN

Structure (SMILES)	% Inhibition @ 10 uM
Cc1cc(C(=O)Nc2c(C)nn(Cc3c(Cl)cccc3Cl)c2C)no1	-0.591%
NC(=O)c1ccc(-n2nnnc2SCC(=O)c2ccc(O)c(O)c2)cc1	1.62%
c1c2c(cc3c1OCO3)OCN(CCOC13CC4CC(CC(C4)C1)C3)C2	3.5%
Cc1cccn2c(=O)c3cc(C(=O)NCc4ccccc4Cl)n(C)c3nc12	0.522%
Cc1ccc2oc(=O)c3cnn(CC(=O)Nc4cccnc4Cl)c3c2c1	-1.7%
CCc1ccc2oc(-c3cccc(N)c3)nc2c1	-3.9%
COc1ccc(CCNC(=O)CSc2nc(O)cc(O)n2)cc1OC	1.96%
O=C(N/C(=C/c1cccs1)C(=O)N1CCCCCC1)c1cccs1	3.72%
Cc1nn(-c2ccccc2)c(N2CCCCC2)c1C=O	12.8%
O=P(O)(CN1CCOCC1)C1CCCCC1O (stereo not shown)	0.132%
CC1CCCC(NC(=O)C2CCCN2S(=O)(=O)c2cccc3nsnc23)C1C (stereo not shown)	2.72%
Cc1ccc(OCC(=O)Nc2nnc(C(C)C)s2)c(Br)c1	-6.69%
CC(C)CCn1c(CCNC(=O)C2CCCCC2)nc2ccccc21	-1.74%
O=C1N=C(Nc2ccccc2Cl)S/C1=C/c1ccco1	-9.82%
CCCCn1c(N)c(C(=O)OCC)c2nc3ccccc3nc21	6.08%
N#Cc1ccccc1NC(=O)Nc1ccc2ccccc2c1	0.847%
CC1CCCC(C)N1CCCNC(=O)Cn1ncc2c3ccccc3n(C)c2c1=O (stereo not shown)	-3.67%
CC(C)COC(C(=O)O)(c1ccccc1)c1ccccc1	1.43%
CCOC(=O)c1sc(NC(=O)c2onc(C)c2Cl)c(C(=O)OCC)c1C	-3.45%
CCN(CC)c1ccc(NC(=O)/C=C\C(=O)O)cc1	-1.5%
CCOC1C(OCC)N(S(=O)(=O)c2ccccc2)CCN1S(=O)(=O)c1ccccc1 (stereo not shown)	-3.48%
CC1CCc2c(sc(NC(=O)c3ccccc3F)c2C(N)=O)C1 (stereo not shown)	-0.425%

Structure (SMILES)	% Inhibition @ 10 uM
Cc1ccc2nc(NC(=O)C3CCCN(S(=O)(=O)c4c[nH]cn4)C3)sc2c1 (stereo not shown)	2.72%
Cc1cc2oc(C(=O)NCC(c3ccco3)N3CCCC3)c(C)c2cc1Cl (stereo not shown)	5.2%
Cc1ccc2nc3[nH]c(=O)[nH]c(=O)c3nc2c1	-7.27%
O=C(Cc1cccc2ccccc12)Nc1ccc(S(=O)(=O)N2CCCCC2)cc1	-6.05%
Cc1ccc(N(C(=O)Nc2ccccc2Cl)C(CC(=O)C2CC2)c2ccccc2)cc1 (stereo not shown)	-2.91%
Cc1cccc2sc(NC(=O)CNS(=O)(=O)c3cccs3)nc12	-2.12%
CCOc1ccccc1CNC(=O)C1CCN(c2nn3c(=O)cc(C)nc3s2)CC1	3%
COc1ccc2c(CNCCC3=CCCCC3)c(C(=O)O)n(Cc3ccc(C)cc3)c2c1	-0.153%
O=c1oc2c(Br)cc(Br)cc2cc1-c1nc(-c2cccs2)cs1	-0.771%
Cc1cc(/C=C2/SC(=S)NC2=O)c(C)n1-c1ccc(F)cc1	2.16%
Cc1[nH]c2ccc(Cl)cc2c1CC(=O)O	-4.42%
CC(=O)c1c(C)[nH]c(C(=O)N(CCc2ccccc2)Cc2ccccc2)c1C	2.9%
Cc1nc2c(c(C)c1CCC(=O)NC1CCN(Cc3ccccc3)CC1)c(=O)n(C)c(=O)n2C	0.44%
CCCCCCOc1ccc(C(=O)O)cc1C#N	-2.51%
CCCc1nc(N)c(C#N)c(-c2ccco2)c1CC	1.26%
CCC(C)/N=C(\C)C1=C(O)CC(C)(C)CC1=O (stereo not shown)	-3.19%
Cn1ncc(Cl)c1C(=O)Nc1nc2ccccc2n1C	5.31%
COc1ccccc1C1C2=C(O)CC(C)(C)CC2=Nc2nc(C(F)(F)F)nn21 (stereo not shown)	-1.62%
COc1ccc(C(=O)CC(=O)c2ccc(Br)cc2)cc1	-2.46%
O=C(Cn1ccc2cc(S(=O)(=O)N3CCCC3)ccc21)NCCc1ccccc1	-0.177%
CC1CC(C)(C)NC(=S)N1CCC(=O)N1CCN(Cc2ccccc2)CC1 (stereo not shown)	-3.31%
CCN1CCN(CCC(C)c2ccccc2)CC1 (stereo not shown)	1.08%

Structure (SMILES)	% Inhibition @ 10 uM
O=C(Nc1ccc2[nH]c(-c3cccs3)nc2c1)c1ccco1	0.843%
CCOC(=O)c1c(NC(=O)CN2CCOCC2)sc2c1CCCC2	-9.49%
CC(Oc1ccccc1)C(=O)Nc1ccccc1Cl (stereo not shown)	-2.65%
O=C(COc1ccccc1Cl)NCCOc1nc(N2CCOCC2)nc(N2CCOCC2)n1	-3.08%
Cc1ccc(-c2cc(C(=O)NCc3cccnc3)[nH]n2)cc1	-1.3%
COc1ccc(C(CNC(=O)c2cc3ccccc3oc2=O)N2CCCCC2)cc1 (stereo not shown)	0.00706%
COc1ccc(N(CC(=O)Nc2ccccc2Cl)S(=O)(=O)c2ccc(C)cc2)c(OC)c1	-3.39%
CC(=O)Nc1ccc(NC(=O)CN(c2ccccc2F)S(=O)(=O)c2ccccc2)cc1	9.96%
COCc1cc(C)nc(S)c1C#N	43.7% and 44.2%
CCN(CC)CCOc1c(Cl)cccc1Cl	-0.711%
CCC(Cc1ccccc1)NC(=O)CS(=O)(=O)Cc1nc(-c2ccc(C)cc2)oc1C (stereo not shown)	-5.58%
O=S(=O)(c1ccccc1)c1nnn2c1nc(N1CCOCC1)c1cc(Cl)ccc12	0.291%
CCOC(=O)c1c(S(=O)(=O)N2CCN(C3CCCCC3)CC2)c(C)n(C)c1C	3.03%
O=C(CCc1nc2ncccc2c(=O)n1Cc1ccccc1)NCCc1c[nH]c2ccccc12	-2.45%
COc1cc(NC2CCC(C)CC2)cc(OC)c1OC (stereo not shown)	-0.0953%
COc1ccc(N2C(=O)c3ccc(C(=O)O)cc3C2=O)c([N+](=O)[O-])c1	1.9%
O=C(NC(c1ccccc1)c1ccccc1)c1ccccc1Br	0.247%
Cc1ccc(CC(=O)Nc2ccc(S(=O)(=O)Nc3ncccn3)cc2)cc1	-2.66%
O=C(Cn1ncc2c3ccccc3nc-2c1O)NCc1ccc(F)cc1	-4.77%
CC(C)CCNS(=O)(=O)c1ccc(-c2cc(C(F)(F)F)no2)s1	1.56%
